{"source": "patent US20110212100A1", "about": "“METHODS FOR MODULATING DEVELOPMENT AND EXPANSION OF IL-17 EXPRESSING CELLS” (priority 2007, published 2011)", "tested_on": "Xbp-1 splicing / eIF2α phosphorylation in activated T cells", "experiment": "Stress response pathway delineation (western blot, Xbp-1 splicing assay)", "conditions": "4 hours; 10 nM HF or 1 μg/ml tunicamycin", "method": "FIG. 13A is an illustration depicting analysis of CD4^+ CD25^− T cells that were left unstimulated (TN), or were activated through the TCR for 4 hours in complete medium (complete—200 μM Cys/100 μM Met), medium lacking Cyst Met (Cys/Met) or complete medium containing 1 μg/ml tunicamycin, 10 nM HF or 10 nM MAZ1310. Western blotting was performed on whole cell extracts with the indicated antibodies. Xbp-1 splicing assay was performed on cDNA synthesized from T cell cultures.\nA variety of other cellular stresses (ER stress, oxidative stress, viral infection) also result in eIF2α phosphorylation and ATF4 translation, a phenomenon termed the integrated stress response (ISR). (Harding, H. P. et al. An integrated stress response regulates amino acid metabolism and resistance to oxidative stress. Mol Cell 11, 619-33 (2003); and Harding, H. P. et al. Regulated translation initiation controls stress-induced gene expression in mammalian cells. Mol Cell 6, 1099-108 (2000)). Individual stressors, however, can also activate stress type-specific pathways. […]"}
{"molecule": "O=C(CC1NCCCC1O)Cn1cnc2cc(Br)c(Cl)cc2c1=O", "note": "(racemic) [HF, 7-bromo-6-chloro-3-[3-(3-hydroxy-2-piperidinyl)-2-oxopropyl]-4(3H)-quinazolinone]", "values": [{"measurement": "eIF2α phosphorylation, ATF4 expression and Xbp-1 splicing, in words", "result": "inducing eIF2α phosphorylation without promoting Xbp-1 splicing"}]}
{"molecule": "tunicamycin", "values": [{"measurement": "eIF2α phosphorylation, ATF4 expression and Xbp-1 splicing, in words", "result": "induced eIF2α phosphorylation and ATF4 expression together with Xbp-1 splicing"}]}
